# Whole data set: some 33,000 sequences, median “E-score (-0.5 to 0.5)” near -0.035, cut for the highest 2% near 0.35. This is one part of the list.
# Biological target: T1, Pdr3 (UniProt P33200)
# T1 sequence: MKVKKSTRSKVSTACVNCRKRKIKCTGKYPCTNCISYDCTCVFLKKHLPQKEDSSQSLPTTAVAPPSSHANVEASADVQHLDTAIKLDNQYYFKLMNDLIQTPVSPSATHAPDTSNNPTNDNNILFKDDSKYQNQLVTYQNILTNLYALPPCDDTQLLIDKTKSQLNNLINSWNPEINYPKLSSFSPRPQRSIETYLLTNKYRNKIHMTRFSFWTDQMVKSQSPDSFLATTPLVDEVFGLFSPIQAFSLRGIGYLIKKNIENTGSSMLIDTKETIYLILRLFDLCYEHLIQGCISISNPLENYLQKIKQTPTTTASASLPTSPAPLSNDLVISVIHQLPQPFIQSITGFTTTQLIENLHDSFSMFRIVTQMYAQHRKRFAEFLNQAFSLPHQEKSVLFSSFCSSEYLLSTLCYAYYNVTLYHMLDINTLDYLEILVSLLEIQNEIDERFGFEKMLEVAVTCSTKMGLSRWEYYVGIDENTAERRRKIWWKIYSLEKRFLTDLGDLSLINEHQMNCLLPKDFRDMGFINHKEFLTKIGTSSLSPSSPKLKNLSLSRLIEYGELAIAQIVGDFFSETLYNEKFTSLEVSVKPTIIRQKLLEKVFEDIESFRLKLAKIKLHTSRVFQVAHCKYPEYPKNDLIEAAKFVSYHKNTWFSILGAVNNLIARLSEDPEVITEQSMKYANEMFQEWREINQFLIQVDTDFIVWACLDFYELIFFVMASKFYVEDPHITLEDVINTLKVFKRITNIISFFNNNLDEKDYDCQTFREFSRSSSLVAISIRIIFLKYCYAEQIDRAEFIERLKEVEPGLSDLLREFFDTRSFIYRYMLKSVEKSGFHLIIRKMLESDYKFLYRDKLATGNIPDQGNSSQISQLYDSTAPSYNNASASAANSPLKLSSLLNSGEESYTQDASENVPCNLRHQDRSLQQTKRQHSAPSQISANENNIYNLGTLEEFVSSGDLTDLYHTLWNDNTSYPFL
# Assay: PBM E-score (8-mer binding enrichment) (E-score (-0.5 to 0.5)); higher = stronger / more preferred TF binding; most listed sequences are background and not binding sites
# Settings: protein concentration: 200 nM; construct: GST-full length
# Method: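 Universal 'all 10-mer' protein binding microarrays (Agilent AMADID 015681) probed with GST-tagged S. cerevisiae TFs (full-length or DBD) made by in vitro transcription/translation (PURExpress), about 100-200 nM. Bound TF was detected with fluorescent anti-GST. Each ungapped 8-mer (which stands for itself and its reverse complement) is scored by the PBM enrichment score (E-score), a modified Wilcoxon-Mann-Whitney statistic from -0.5 to +0.5, computed with the Universal PBM Analysis Suite. Scale: above 0.35 generally sequence-specific binding.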
row,Sequence,PBM E-score
1,CTTTAGCA,-0.131
2,GCCTTAAA,-0.0926
3,ACATGTGG,-0.033
4,AAGTTGGA,-0.0399
5,GAGGGGAC,-0.0578
6,CGATTAAC,-0.0197
7,CATTACCG,0.0437
8,ACAGACCG,0.0876
9,ACACATCA,-0.0747
10,CCCGTCTA,0.135
11,AGGATTCG,0.063
12,AGCTTCGA,-0.102
13,CATGAGTA,-0.168
14,TCTGGACA,-0.0193
15,ACTGTCTC,0.0155
16,ACTTAAGT,-0.177
17,ATTGTGCG,0.043
18,ACAGAGCG,-0.219
19,GCCCATGA,0.0274
20,GCACGCCC,0.175
21,GAGTTTGC,0.0634
22,CTAAGCTC,-0.174
23,ATGGTGCG,-0.107
24,ACGGCCCT,-0.185
25,CACTTAAG,0.00117

row,Sequence,PBM E-score
1,AATGGCAG,-0.0843
2,ACATAACA,0.0167
3,AGGTGACA,-0.137
4,ATATTTGA,0.0182
5,ATGCCTTA,-0.316
6,AGTCACCA,-0.212
7,AATCATGT,-0.0895
8,GGTCCTCA,0.0438
9,GGAGTTAC,0.13
10,GACGATTA,0.0221
11,CCGACCCG,0.275
12,GAAGACGC,0.0621
13,CACCCCGG,0.236
14,AATCACAC,-0.0658
15,AGGTTACT,0.00384
16,CAATATCA,-0.0753
17,GTCAGAAC,-0.132
18,CAGCGGAA,0.429
19,CTCAACAG,-0.268
20,CTATCTTA,-0.0715
21,GCTAAATA,-0.18
22,CCGGGTGC,0.335
23,CAAATGTA,0.0363
24,CCTGCTAC,0.0463
25,ACAGAACA,0.0488

row,Sequence,PBM E-score
1,ACTCCGCA,0.154
2,ATCACAGC,-0.00136
3,AATGGGCC,0.179
4,CCCTGATC,0.0107
5,CTGTCATA,-0.255
6,ACCGGTCG,-0.052
7,CCCATCAC,-0.0661
8,CGAGAAGC,-0.0427
9,GCGGAGTA,0.245
10,ACCCGGGA,0.448
11,CACAATCG,0.0735
12,GAAACAGC,0.0605
13,CCGCTAAC,0.13
14,TAGGCGCA,0.0506
15,CCATGGCA,-0.0618
16,ATATAGGA,0.0313
17,GGTCGCAA,0.0838
18,GCGGGGGA,0.13
19,ATCACTTG,-0.189
20,CCATCACC,0.00462
21,ATGTGATC,-0.0525
22,CGTATAAA,0.16
23,GCCTATCA,-0.0216
24,ACTGTAGA,-0.11
25,CGGGGTAC,0.0885

row,Sequence,PBM E-score
1,CAGGTCGC,-0.0612
2,TCAAATAA,0.0815
3,ATTTCTCA,-0.226
4,ATGGGTTC,-0.109
5,AGGGTATA,-0.0377
6,GACCCAAC,-0.136
7,CCAAGGCA,-0.0524
8,ACCGTGTC,0.161
9,ACACTTCC,0.184
10,AATGTCGC,0.0447
11,GGGTCGAC,0.0291
12,CTCCGGCA,0.34
13,CAGCGTAC,-0.099
14,CTCCTTTC,0.0464
15,AAGCTTTA,-0.211
16,ACTCCGAG,0.28
17,GCATCTAC,-0.0209
18,CTGCTCTC,-0.141
19,GACGACCC,-0.104
20,CGCCGTAC,0.0518
21,ACAAAACC,0.0662
22,GACAGATC,0.0794
23,AACTCCCT,-0.238
24,CATTTATC,-0.125
25,ACCTCGGG,0.158

row,Sequence,PBM E-score
1,GAGGGTAA,-0.0969
2,ACTCAATG,0.0123
3,GTTTTATA,0.153
4,ACGATTCT,0.0192
5,ACGTGTCA,-0.118
6,GCGGTGAC,-0.135
7,TAAGGCCA,-0.0519
8,CTACGCGC,0.0629
9,GCGATTGA,-0.15
10,ACAGTTCT,0.082
11,CGAGCAAG,-0.0857
12,TCTGCGAA,-0.305
13,GCGGGGCA,0.129
14,CAGCTTTC,-0.0262
15,AACAGAAG,-0.0894
16,ACTCAGTA,-0.128
17,GACTCAGC,-0.192
18,CCACAAGC,-0.126
19,CAACGCCG,0.117
20,CCGTGTAA,0.117
21,CTACTCAA,-0.0942
22,AAGGCACC,-0.00529
23,ACGGTGAG,-0.00232
24,CATCCTGA,0.0884
25,CCATGGTA,-0.158

row,Sequence,PBM E-score
1,GAGATCGC,0.0558
2,ACACGTTG,-0.264
3,AGAAACGA,0.0182
4,ATGCCCCG,0.174
5,ACATCCCC,0.245
6,CCCCCAAA,-0.316
7,TACCGCAA,0.0565
8,CCTCTGAG,-0.0893
9,CTCCGTAA,0.185
10,CGCGACAG,0.076
11,CGCACAGA,-0.122
12,CCCATCTC,0.0797
13,AAGCGGAG,0.0882
14,GTAGGAGA,-0.0454
15,AAAGACAG,0.0703
16,CCCAGTAG,-0.11
17,GGCATAAA,-0.0711
18,GACCTGAC,-0.081
19,ACAGTGAA,-0.136
20,AGAGGGCG,0.126
21,GAGGCCCA,-0.0272
22,AGCCCCTA,-0.104
23,AATGTACC,-0.281
24,TGAACTAA,-0.114
25,CTCGAGAG,-0.107

row,Sequence,PBM E-score
1,GGATAACC,0.117
2,AAGTTATC,-0.082
3,CCTACTCA,-0.00584
4,CGTTTCCC,0.21
5,ACAAGCGG,0.135
6,AATAGACC,0.116
7,ACCGTAAT,0.0483
8,GATGTCAC,0.0632
9,ATGAGAAC,-0.0344
10,ATCATGAC,-0.0412
11,ACTATCAA,0.0687
12,CCAGCCGA,0.143
13,CGGAACTC,0.452
14,CCCTTGAC,-0.0397
15,CAACTATG,-0.113
16,CGATTTCA,-0.0484
17,CAGGACTA,-0.092
18,CTCGTTTA,-0.0756
19,CGTTTCCA,-0.0281
20,AAGATCTT,0.00268
21,CGGCGTCA,0.0809
22,CTTTTTAA,-0.194
